Experimental data: the supplement of paper PMC4967469
IC50 is the fitted dose that halves viability relative to control wells, and lower means more sensitive; a limit (>, <) means that the fit lies beyond the doses tested. For AUC the same curve is integrated over the 256-fold range of doses and scaled to a fraction; values near 1 show little effect. For some of these results: An inferred top dose was derived from the fitted curves, not read from the paper. For some of these results: Where an entry number is given, a second screen of the drug exists; the two often differ.

Experiments:
Test in all cases: Viability of human cancer cell lines after 72 h of drug (GDSC screen)
Parthenolide = compound: C=C1C(=O)O[C@H]2[C@H]1CC/C(C)=C/CC[C@@]1(C)O[C@@H]21 [Parthenolide]; settings: top dose 5 µM
Procedure: (§1)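 Human cancer cell lines in 384-well plates, medium with 10% serum, drug for 72 h over a 256-fold dose range (nine 2-fold or five 4-fold steps up to the top dose). Adherent lines were fixed and stained with the nucleic acid dye Syto60, suspension lines read with resazurin; signal relative to control wells, capped at 0 and 100%. One two-parameter sigmoid per drug and line, fitted in a mixed model over all curves with the slope shared within a line.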

PAC-1 = compound: C=CCc1cccc(/C=N/NC(=O)CN2CCN(Cc3ccccc3)CC2)c1O [PAC-1]; settings: top dose 2.56 µM
Procedure: as §1

KIN001-135 = compound: COc1cc2ncn(-c3cc(OCc4ccccc4S(C)(=O)=O)c(C#N)s3)c2cc1OC [KIN001-135]; settings: top dose 5 µM; top dose inferred
Procedure: as §1

BMS-708163 = compound: NC(=O)[C@@H](CCC(F)(F)F)N(Cc1ccc(-c2ncon2)cc1F)S(=O)(=O)c1ccc(Cl)cc1 [BMS-708163]; settings: top dose 5 µM; screen: GDSC drug entry 1072; top dose inferred
Procedure: as §1

Cell Line | AUC (Parthenolide) | IC50 (Parthenolide) [µM] | AUC (PAC-1) | IC50 (PAC-1) [µM] | AUC (KIN001-135) | IC50 (KIN001-135) [µM] | AUC (BMS-708163) | IC50 (BMS-708163) [µM]
TE-5 (oesophagus, adherent) | 0.878 | > 5 | 0.982 | > 2.56 | 0.983 | > 5 | 0.982 | > 5
TE-6 (oesophagus, adherent) | 0.986 | > 5 | 0.976 | > 2.56 | 0.979 | > 5 | 0.839 | 4.3
TE-8 (oesophagus, adherent) | 0.985 | > 5 | 0.969 | > 2.56 | 0.985 | > 5 | 0.914 | > 5
TE-9 (oesophagus, adherent) | 0.906 | > 5 | 0.981 | > 2.56 | 0.986 | > 5 | 0.986 | > 5
TE-10 (oesophagus, adherent) | 0.968 | > 5 | 0.98 | > 2.56 | 0.986 | > 5 | 0.988 | > 5
TE-12 (oesophagus, suspension) | 0.933 | > 5 | 0.982 | > 2.56 | 0.965 | > 5 | 0.966 | > 5
TE-15 (oesophagus, suspension) | 0.984 | > 5 | 0.915 | > 2.56 | 0.983 | > 5 | 0.946 | > 5
TGBC1TKB (biliary tract, adherent) | 0.989 | > 5 | 0.96 | > 2.56 | 0.989 | > 5 | 0.989 | > 5
TGW (neuroblastoma, adherent) | 0.987 | > 5 | 0.976 | > 2.56 | 0.992 | > 5 | 0.991 | > 5
TK10 (kidney, adherent) | 0.876 | > 5 | 0.901 | > 2.56 | 0.975 | > 5 | 0.959 | > 5
TK (B-cell lymphoma, suspension) | 0.952 | > 5 | 0.815 | 1.25 | 0.981 | > 5 | 0.985 | > 5
TUR (B-cell lymphoma, suspension) | 0.986 | > 5 | 0.917 | > 2.56 | 0.978 | > 5 | 0.989 | > 5
U-87-MG (glioma, adherent) | 0.87 | > 5 | 0.984 | > 2.56 | 0.945 | > 5 | 0.94 | > 5
U-698-M (B-cell leukaemia, suspension) | 0.96 | > 5 | 0.899 | > 2.56 | 0.987 | > 5 | 0.985 | > 5
UACC-257 (melanoma, adherent) | 0.846 | > 5 | 0.979 | > 2.56 | 0.976 | > 5 | 0.843 | 4.89
VAL (B-cell lymphoma, suspension) | 0.776 | 2.01 | 0.889 | > 2.56 | 0.975 | > 5 | 0.981 | > 5
VCaP (prostate, adherent) | 0.878 | > 5 | 0.887 | > 2.56 | 0.987 | > 5 | 0.987 | > 5
WIL2-NS (lymphoid neoplasm, suspension) | 0.827 | 2.33 | 0.805 | 1.01 | 0.986 | > 5 | 0.992 | > 5
WSU-DLCL2 (B-cell lymphoma, suspension) | 0.993 | > 5 | 0.992 | > 2.56 | 0.991 | > 5 | 0.989 | > 5
WSU-NHL (lymphoid neoplasm, suspension) | 0.95 | > 5 | 0.859 | 1.72 | 0.972 | > 5 | 0.954 | > 5
YT (lymphoid neoplasm, suspension) | 0.991 | > 5 | 0.89 | 2.17 | 0.992 | > 5 | 0.94 | > 5
no-10 (glioma, adherent) | 0.711 | 1.42 | 0.967 | > 2.56 | 0.881 | > 5 | 0.959 | > 5
no-11 (glioma, adherent) | 0.917 | > 5 | 0.98 | > 2.56 | 0.939 | > 5 | 0.93 | > 5
